Reference: PMC4336329 (PLoS ONE, 2015)
Among all 310,000 compounds or so, about 2,200 (0.71%) showed an effect of 50% or more. The effect is printed as a negative number. Some of the results follow.

Target: human ether-à-go-go-related gene (hERG) potassium channel (human, UniProt Q12809)
Test: primary screen, population patch clamp on CHO cells stably expressing hERG

Chain of human ether-à-go-go-related gene (hERG) potassium channel (Q12809 whole entry, looked up): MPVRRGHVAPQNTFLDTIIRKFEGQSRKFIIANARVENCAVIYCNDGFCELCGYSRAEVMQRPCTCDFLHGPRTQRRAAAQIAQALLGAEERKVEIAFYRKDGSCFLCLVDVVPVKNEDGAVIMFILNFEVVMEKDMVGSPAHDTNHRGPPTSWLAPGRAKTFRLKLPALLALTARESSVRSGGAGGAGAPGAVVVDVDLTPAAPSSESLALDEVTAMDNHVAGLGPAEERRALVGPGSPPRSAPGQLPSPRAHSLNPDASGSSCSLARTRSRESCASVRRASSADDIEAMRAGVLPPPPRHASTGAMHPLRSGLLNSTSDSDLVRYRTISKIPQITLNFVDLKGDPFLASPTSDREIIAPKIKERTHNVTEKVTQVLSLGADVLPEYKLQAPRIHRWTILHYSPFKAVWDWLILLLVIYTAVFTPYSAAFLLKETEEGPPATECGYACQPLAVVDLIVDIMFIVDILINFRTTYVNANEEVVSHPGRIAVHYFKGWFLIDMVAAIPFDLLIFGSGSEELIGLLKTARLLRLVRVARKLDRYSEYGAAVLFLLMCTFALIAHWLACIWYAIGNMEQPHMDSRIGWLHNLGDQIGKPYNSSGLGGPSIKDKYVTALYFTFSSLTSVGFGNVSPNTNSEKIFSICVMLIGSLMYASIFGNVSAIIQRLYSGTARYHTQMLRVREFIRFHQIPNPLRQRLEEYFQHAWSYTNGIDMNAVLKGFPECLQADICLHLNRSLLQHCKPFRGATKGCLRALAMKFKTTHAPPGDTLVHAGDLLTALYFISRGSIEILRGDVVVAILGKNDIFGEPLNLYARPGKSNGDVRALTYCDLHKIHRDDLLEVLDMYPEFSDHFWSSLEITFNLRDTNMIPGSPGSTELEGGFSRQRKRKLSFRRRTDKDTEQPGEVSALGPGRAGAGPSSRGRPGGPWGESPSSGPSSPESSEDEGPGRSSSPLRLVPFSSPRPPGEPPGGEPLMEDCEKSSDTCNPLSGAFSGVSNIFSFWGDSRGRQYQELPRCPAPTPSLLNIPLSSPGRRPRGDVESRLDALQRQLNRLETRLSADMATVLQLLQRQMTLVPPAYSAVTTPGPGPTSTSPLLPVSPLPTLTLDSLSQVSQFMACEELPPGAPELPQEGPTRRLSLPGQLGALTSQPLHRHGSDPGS

Compound	hERG current change (%, negative = inhibition) at 1uM
Cc1cccc(N2CC(C(=O)Nc3ccc(S(=O)(=O)NCC4CCCO4)cc3)CC2=O)c1C (centres unmarked)	17.3%
CCOC(=O)c1cnc(/N=C/N(C)C)s1	6.56%
O=C(NC1CCS(=O)(=O)C1)c1cnccn1 (centres unmarked)	25.6%
COc1ccc(CCN(Cc2nc3ccccc3c(=O)[nH]2)C(=O)C2CC2)cc1	10.3%
O=C(O)CN(Cc1ccccc1)S(=O)(=O)c1ccc(F)cc1	14.6%
On1c(-c2ccccc2Cl)nc2ncccc21	10.4%
COc1ccc(-c2nc3cnccn3c2NCc2ccccc2)cc1SC1CCCCC1.O=C(O)C(F)(F)F	11.5%
O=C(/C=C/c1ccccc1Cl)c1ccc(O)cc1	9.98%
Cc1c(C)n(C)c2ccc(C(=O)NCCCN3CCN(c4ccc(F)cc4)CC3)cc12	-11.4%
CC1CCCCN1CCNC(=O)C1CCN(S(=O)(=O)N2CCCCC2)CC1 (centres unmarked)	8.49%
O=C1CSCC(=O)N1c1ncc(C(F)(F)F)cc1Cl	12.1%
Cc1ccc(SCc2noc(-c3c(C)noc3C)n2)cc1	2.27%
Cc1ccc(C(=O)NC2CC(C)(C)NC(C)(C)C2)c(C)c1	10.5%
O=C(NCCNc1ccc([N+](=O)[O-])cc1C(F)(F)F)c1ccc(F)cc1	-1.03%
Cc1cc(Nc2cccc(Cl)c2Cl)n2ncnc2n1	11.3%
O=C(CSc1nccn1Cc1ccco1)Nc1ccccc1	11.6%
CCOc1ccc(NC(=O)C2CC(=O)NC(N3CCc4ccccc43)=N2)cc1 (centres unmarked)	6.62%
CCCC(=O)Nc1ccc(NC(=O)c2ccccc2Cl)nc1	9.41%
CCC(=O)Nc1cccc(NC(=O)c2ccccc2Br)c1	3.69%
Cc1ccc(-c2csc(NC(=O)C3CSC4(C)CCC(=O)N34)n2)cc1 (centres unmarked)	11.6%
COc1ccc(N2C(=NC(=O)C3CCCO3)SC3CS(=O)(=O)CC32)cc1 (centres unmarked)	13.1%
CC(C(=O)NCC(=O)Nc1ccc(F)c(F)c1F)N1CCN(c2ccc(O)cc2)CC1 (centres unmarked)	4.56%
C/C=C/c1ccc(OCC(=O)O)c(OC)c1	15.2%

Compound	hERG current change (%, negative = inhibition) at 1uM
O=C(CS(=O)(=O)c1cn(Cc2ccc(Cl)cc2)c2ccccc12)N1CCCC1	4.17%
CCN1CCN(C(=S)Nc2cc(S(=O)(=O)N(CC)CC)ccc2C)CC1	8.19%
O=c1ncn(-c2cccc([N+](=O)[O-])c2)c2ccccc12	0.955%
CC(NC(=O)C1CCN(S(=O)(=O)c2ccc3c(c2)NC(=O)CO3)CC1)c1ccccc1 (centres unmarked)	-8.13%
COc1ccc(OCC(=O)NNC(=O)c2cccs2)cc1	9.13%
CC(/C=N/n1c(COc2ccccc2)n[nH]c1=S)=C\c1ccccc1	10.2%
COC(=O)c1c(C)[nH]c(C(=O)C(C)OC(=O)c2cc(C)oc2C)c1C (centres unmarked)	1.12%
COc1ccc(S(=O)(=O)N2CCNCC2)cc1	5.56%
O=C(COc1ccccc1)NC(NC(=S)Nc1ccccc1O)C(Cl)(Cl)Cl (centres unmarked)	17.3%
Cc1nc(-c2ccccc2)sc1C1(C)CC(c2cccc(F)c2)=NO1 (centres unmarked)	12.6%
COc1cccc(Nc2ncnc3sccc23)c1	16.9%
C=C(C)Cn1c(SCC)nc2ccccc2c1=O	3.34%
COc1ccc(-c2cc(C(=O)N3CCCC3)c3ccccc3n2)cc1OC	9.37%
Cc1ccc(CN(CC(=O)NCCc2ccccc2)C(=O)CCCC(=O)Nc2cc(C)on2)cc1	-15%
O=C(CSc1nnc(-c2ccc(O)cc2)n1Cc1ccco1)c1ccccc1	5.2%
Cc1ccc(CNC(=O)c2ccc3c(=O)n(CC4CCCO4)c(=S)[nH]c3c2)cc1 (centres unmarked)	-3.16%
Cc1nc2sc3c(c2c(=O)[nH]1)CCCCC3	5.7%
CCOc1cc(C(C#N)N2CCOCC2)ccc1OC (centres unmarked)	9.2%
CCOc1ncccc1C(=O)Nc1ccc(F)c(F)c1	5.21%
Cc1ccsc1C(=O)N1CCC(CO)(Cc2ccccc2)CC1	4.1%
O=C(CSc1nnc2ccccn12)NCc1ccco1	24.9%
Cc1ccc(C(=O)NCc2ccc(N3CCN(C)CC3)cc2)cc1C	9.65%
Cc1cccc(NC(=O)c2cc(S(=O)(=O)N3CCCC3)cn2C)c1	13.2%

Compound	hERG current change (%, negative = inhibition) at 1uM
Cc1nn(-c2ccccc2)c2c1C(c1ccc([N+](=O)[O-])cc1)N1C(=N2)C(=O)Nc2ccccc21 (centres unmarked)	-2.47%
CC1=C(C(N)=O)C(c2ccccn2)n2nc(SCc3ccccc3)nc2N1 (centres unmarked)	1.07%
COc1cc(NC(=O)NCC2CCN(Cc3ccccc3C)CC2)cc(OC)c1OC	8.38%
CCOC(=O)Cn1c(-c2ccccc2)nc2ccccc2c1=O	-1.44%
C=CCn1cccc(C(=O)Nc2ccc(OC)cc2OC)c1=O	13.7%
CN(CC1CCCO1)S(=O)(=O)c1ccc(C(=O)Nc2nc3cc4c(cc3s2)OCO4)cc1 (centres unmarked)	7.58%
COc1cc(OC)cc(-n2nnnc2SCC(=O)N2CCCC2)c1	-11.2%
CN(C)c1ccc(/C=N/NC(=S)NCc2ccco2)cc1	4.56%
O=C(Cn1nnc(-c2cccc(C(F)(F)F)c2)n1)N1CCOCC1	-3.38%
N#C/C(=C\c1ccccc1)C(=O)N1CCN(c2ccccc2F)CC1	15.3%
CC(C)NC(=O)CCCn1c(=S)[nH]c2cc3c(cc2c1=O)OCO3	4.4%
CCOc1cccc2cc(C(=O)NCc3ccc(C)cc3)c(=N)oc12	11.6%
CCc1ccc(OCC2c3cc(OC)c(OC)cc3CCN2C(=S)NCCOC)cc1 (centres unmarked)	7.43%
COCCCn1cn[nH]c1=S	10.8%
COc1ccccc1NC(=S)NCc1ccccn1	2.03%
Cc1cc(OCC(=O)N2CCCC2)ccc1Cl	3.99%
c1ccc2c(c1)ncn2CCCOc1ccc2c(c1)CCC2	0.906%
CCOC(=O)c1ccccc1NC(=S)N1CCN(C(=O)c2ccco2)CC1	14.4%
Cc1cccc(C)c1NC(=O)CNC(=O)c1c(C)nn(C)c1Cl	15.2%
O=C(O/N=C(\c1ccccc1)c1ccncc1)c1ccccc1F	12.2%
Cc1ccc(S(=O)(=O)N(C)CCCC(=O)Nc2ccccn2)cc1	9.9%
CCN(Cc1ccncc1)Cc1cn[nH]c1-c1ccc(OC)cc1F	14.2%
CC(C)CNC(=O)COc1ccc2c3c(c(=O)oc2c1)CCC3	11.3%

Compound	hERG current change (%, negative = inhibition) at 1uM
Cc1cc2c(cc(C(=O)N3CCC(C(=O)NC4CCCC4)CC3)n2Cc2c(F)cccc2Cl)o1	9.07%
O=C(NNC(=O)c1csc(N2CCOCC2)n1)c1ccc(Cl)nc1	8.14%
CS(=O)(=O)N(CC(=O)N1CCCCC1)c1sc2c(c1C#N)CCCC2	-9.12%
CC(C)=CCSc1nnc([C@@H](N)Cc2c[nH]c3ccccc23)o1.Cl	19.2%
COc1ccc(C(c2sc3nc(C)nn3c2O)N2CCN(Cc3ccccc3)CC2)cc1OC (centres unmarked)	3.82%
c1ccc(CCn2nnnc2C(c2cccnc2)N2CCOCC2)cc1 (centres unmarked)	11.6%
Cc1cc(-c2cc(C(=O)O)c3ccccc3n2)c(C)s1	1.09%
CC[C@H](C)[C@H](NC(N)=O)C(=O)NCCc1ccc(Cl)cc1Cl	15.6%
CC(=O)n1nc(-c2ccccc2)cc1-c1ccccc1	9.32%
CC(=O)c1ccccc1OC(=O)COc1ccc([N+](=O)[O-])cc1	13.5%
CNCCC=C1c2ccccc2CCc2ccccc21.Cl	7.49%
CC(C)c1ccc(/C=N/NC(=O)C(=O)NCCCN2CCOCC2)cc1	-5.75%
O=S(=O)(c1cccs1)N1CCc2ccccc21	2.83%
CCCS(=O)(=O)c1c(S(=O)(=O)CCC)c2c(C)cccn2c1C(N)=O	8.93%
CCOC(=O)C1CCN(S(=O)(=O)c2ccc3c(c2)CCN3C(C)=O)CC1	6.99%
COc1ccc(CNC(=O)C(C)N(Cc2ccco2)C(=O)c2snc(C(N)=O)c2N)cc1 (centres unmarked)	0.521%
CC(C)Cn1c(=O)c2ccccc2n2c(CCC(=O)NCC3CCCO3)nnc12 (centres unmarked)	7.52%
CCOc1ccc(N=c2cc(-c3ccc(OC)cc3)oc3ccccc23)cc1	1.66%
O=C(Nc1nnc(-c2ccco2)o1)c1ccc2ccccc2c1	7.83%
CCN1CCCc2cc(CN(CCN3CCOCC3)C(=S)Nc3ccccc3C)ccc21	11.3%
CCCOc1ccc(N2C(=O)CC(N(Cc3ccco3)C(C)=O)C2=O)cc1 (centres unmarked)	-2.02%
O=C(CN1CSCC1=O)N1CCN(S(=O)(=O)c2cccc(F)c2)CC1	4.66%
CC1(c2cccs2)CC(c2cccs2)=C(C#N)C(=O)N1 (centres unmarked)	-0.852%
